Laboratory results from PubChem BioAssay AID1476 (National Center for Advancing Translational Sciences (NCATS), 2009).
Hit rate of the full screen: of about 200,000 compounds, about 4,500 (2.2%) were called active. Inconclusive results, whose numbers are uncertain, are shown with a selection of clear calls. The call rests on the fitted dose curve; in most records, active means well fitted inhibition curve with a large enough effect; inconclusive means small, poorly fitted or top-dose-only effect, or effect the other way; inactive means flat fitted curve, though single readings scatter. A potency beside an inconclusive call is a rough fit, not a confirmed value.

These molecules were tested against Cruzipain (Trypanosoma cruzi) (UniProt P25779) (assay: qHTS Assay for Promiscuous and Specific Inhibitors of Cruzain (without detergent)). Details: purified cruzain, Z-FR-AMC fluorescence, no detergent.
Method in brief: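 Detergent-free condition (0.00005% Triton X-100) in acetate buffer pH 5.5 with DTT. 1.5 nM enzyme and compound were pre-mixed 15 min, then 2 uM Z-FR-AMC substrate added; reaction progress from fluorescence change between first and third reads (60 s).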
Further: nearly all actives have a fitted effect of over 40% in size.
Potency means the concentration at half of the fitted maximal effect; tags describe the fitted curve by direction and shape.
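Wherever max response, negative = inhibition is given: plate controls were enzyme without inhibitor for no effect and buffer without enzyme for full effect.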

Chain of UniProt P25779 (P25779 whole entry, looked up): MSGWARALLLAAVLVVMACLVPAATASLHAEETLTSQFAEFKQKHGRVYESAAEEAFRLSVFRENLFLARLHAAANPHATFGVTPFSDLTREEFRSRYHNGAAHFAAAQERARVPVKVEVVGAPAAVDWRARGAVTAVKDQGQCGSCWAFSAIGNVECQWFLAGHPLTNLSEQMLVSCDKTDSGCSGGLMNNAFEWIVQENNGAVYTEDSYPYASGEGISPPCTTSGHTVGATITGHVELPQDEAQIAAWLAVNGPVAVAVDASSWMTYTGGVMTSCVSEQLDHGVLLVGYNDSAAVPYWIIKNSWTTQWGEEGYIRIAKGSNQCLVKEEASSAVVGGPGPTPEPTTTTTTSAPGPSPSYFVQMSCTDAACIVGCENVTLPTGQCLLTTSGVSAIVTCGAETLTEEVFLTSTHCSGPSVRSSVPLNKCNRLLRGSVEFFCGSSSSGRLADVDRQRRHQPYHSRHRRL

SMILES | Potency | max response, negative = inhibition
Cc1ccnc2ccc(-c3nc4ccccc4o3)cc12 | inconclusive: 31.6 µM [activator, partial curve] | 
Cc1ccc(C2C(/C=C3/SC(=S)NC3=O)=C(c3cccs3)Oc3ccccc32)cc1 (stereo not drawn) | active: 7.94 µM | 
Cc1cccc(N(C(=O)Cc2cccs2)C(C(=O)NC2CCCC2)c2ccsc2)c1 (stereo not drawn) | inconclusive: 39.8 µM [inhibitor, single point] | 
O=S(=O)(c1ccc(N2CCCC2c2nc3ccccc3s2)nc1)N1CCOCC1 (stereo not drawn) | inconclusive: 39.8 µM [activator, single point] | 
Cc1ccc(S(=O)(=O)Nc2cccc(-c3cn4ccsc4n3)c2)cc1 | inconclusive: 31.6 µM [inhibitor, single point] | 
CN1C(=O)c2ccccc2Sc2ccc(NC(=O)COc3ccc(Cl)cc3)cc21 | inconclusive: 39.8 µM [inhibitor, single point] | 
Cc1ccc2nc(-c3ccc(NC(=O)COC(=O)c4cncc(Br)c4)cc3)sc2c1 | active: 6.31 µM | 
COc1ccc(CCNC(=O)CSCc2nc(-c3ccc(OC)c(OC)c3)oc2C)cc1OC | inconclusive: 39.8 µM [activator, single point] | 
COc1ccc(N(CC(=O)N2CCN(c3cccc(OC)c3)CC2)S(=O)(=O)c2c(C)noc2C)cc1 | inconclusive: 20 µM [activator, partial curve] | 
O=C(Cn1c(=O)ccc2cc(S(=O)(=O)N3CCCC3)ccc21)NCc1ccc(F)cc1 |  | inactive: -4.05%
CCOC(=O)C1=C(CS(=O)(=O)c2ccc(C)c(C)c2)NC(=O)NC1c1ccccc1OCC (stereo not drawn) |  | inactive: 7.18%
Cc1ccc(S(=O)(=O)c2nc(-c3ccccc3)oc2SCC(=O)NC2CCCCC2)cc1 |  | inactive: 2.21%
O=c1[nH]ccc2c(S(=O)(=O)N3CCCNCC3)cccc12 | inconclusive: 4.47 µM [activator, single point] | 
Cc1ccc2c(c1)N(C(=O)c1ccco1)C(C)(C)c1ssc(=S)c1-2 | active: 31.6 µM | 
N#Cc1c(/N=C/c2ccccc2)oc(-c2ccccc2)c1-c1ccccc1 | active: 31.6 µM | 
O=C(O)CCN1C(=O)/C(=C/c2ccc(-c3nc4ccccc4s3)o2)SC1=S | inconclusive: 5.01 µM [activator, full curve] | 
CCC1=C2CC[C@H]3C(=O)N(CC)C(=O)[C@H]3[C@H]2[C@@]2(C)C(=O)N(CC(=O)OC)C(=O)N2C1=O |  | inactive: 2.38%
C=Cc1ccc(Cn2c(C(=O)O)c(CNCc3ccc(F)cc3)c3ccc(C)cc32)cc1 | inconclusive: 39.8 µM [inhibitor, single point] | 
